Measured values as given in the supplement of paper PMC4466236.
Whole data set: some 33,000 sequences, median “E-score (dimensionless, -0.5 to 0.5)” near -0.058, cut for the highest 2% near 0.35. Some of the results follow.

System: MvaT
Assay: PBM 8-mer E-score (mean of HK and ME arrays) (E-score (dimensionless, -0.5 to 0.5)); higher = stronger relative binding preference; most listed sequences are background and not binding sites
Protocol: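 Protein binding microarray: GST-tagged full-length MvaT (P. aeruginosa PAO1) bound to two universal double-stranded 60-mer arrays (ME and HK), each with a constant 25-mer primer and a variable 35-mer region covering all 8-mers. The 8-mer E-score (rank-based, range -0.5 to 0.5, >0.45 = specific binding) is the mean of the two arrays.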

| Sequence | PBM 8-mer E-score |
| --- | --- |
| CTTCAGAC | -0.00427 |
| CTATGTTA | 0.278 |
| CACATGGG | -0.172 |
| AGCATCCC | -0.152 |
| AGACCGAT | -0.0871 |
| GTTGGGGA | -0.0857 |
| AGTGGGTA | -0.0364 |
| TCTCCGCA | -0.146 |
| CACGCAGA | -0.0444 |
| TATGGGAA | 0.0221 |
| AAAAACGA | 0.0516 |
| ACTACAAC | 0.215 |
| AGTCTGCG | -0.171 |
| GAAGCGTC | -0.252 |
| GAACGGGC | -0.247 |
| CCTCCTCG | -0.333 |
| CAGGTACC | -0.0981 |
| CGAGAACG | -0.141 |
| AGGGATCC | -0.298 |
| ATGTCGCG | -0.0528 |
| AGCACGAG | -0.163 |
| GGTATCAA | 0.075 |

| Sequence | PBM 8-mer E-score |
| --- | --- |
| GAAGAACC | -0.175 |
| AATGAATT | 0.267 |
| GCGAGACC | -0.166 |
| ACTTGTTC | 0.122 |
| GCTGACCA | -0.148 |
| ACAGGACC | -0.0728 |
| CCTCCCGC | -0.218 |
| CAAGATAG | -0.0279 |
| GGTACAGA | -0.239 |
| CCTTAATA | 0.298 |
| GATGCATA | 0.174 |
| ACTGGTGA | 0.037 |
| CCCCCCCA | -0.319 |
| CACTCTCC | -0.0607 |
| GACCGCGA | -0.295 |
| CCACTCAC | 0.0164 |
| CATCCTGC | -0.257 |
| GCGATTAC | -0.0538 |
| AACCTTTC | -0.0237 |
| ATTGTCGG | 0.0413 |
| GCGTGAGA | -0.05 |
| ATTTTTGC | 0.0753 |

| Sequence | PBM 8-mer E-score |
| --- | --- |
| AACCAGCA | 0.0722 |
| CTAGAGCC | -0.266 |
| CCACAACC | -0.1 |
| AAGAGAGT | 0.0484 |
| CGGAAAAG | 0.00958 |
| CAAGTTGG | 0.00932 |
| ATCCCATA | 0.0362 |
| CCCGACAC | -0.106 |
| ATACTGCG | 0.0537 |
| AGTCACAA | 0.0341 |
| CATGGTCC | -0.257 |
| CATGCGGC | -0.25 |
| ATAGCAAA | 0.178 |
| GTATGAGA | 0.00287 |
| GCAAGCCC | -0.328 |
| CCAAGCGA | -0.251 |
| AAGCGCGG | -0.118 |
| ATGAGGAA | -0.166 |
| CGTTCTCA | 0.0642 |
| CCCTTAGA | -0.128 |
| TGACACAA | 0.117 |
| AATGTGTC | 0.195 |

| Sequence | PBM 8-mer E-score |
| --- | --- |
| CCATCCCA | -0.188 |
| ACTACGCA | -0.105 |
| CAGAGAGC | -0.291 |
| AACGGGCC | -0.215 |
| CAACCATC | -0.215 |
| GGTTCGAC | -0.0729 |
| ATCTCCCC | -0.2 |
| AGTGCATA | 0.0813 |
| ATGGGTCA | -0.0598 |
| ACAAATTA | 0.35 |
| CAACTGGA | -0.0318 |
| GATGCGCC | -0.206 |
| AAGAATTG | -0.0115 |
| TGAGCCAA | -0.318 |
| GACACACC | -0.0993 |
| CTATGCAC | 0.0725 |
| ACGCTAGC | -0.157 |
| ATGGGAGC | -0.25 |
| TAGCCATA | 0.0758 |
| GCTAGAAA | 0.0651 |
